# Data from paper PMC12136788.
# Some of the results follow.
# T1: UNK ZnF1-3 (human, UniProt Q9C0B0 31-174)
# T1 sequence: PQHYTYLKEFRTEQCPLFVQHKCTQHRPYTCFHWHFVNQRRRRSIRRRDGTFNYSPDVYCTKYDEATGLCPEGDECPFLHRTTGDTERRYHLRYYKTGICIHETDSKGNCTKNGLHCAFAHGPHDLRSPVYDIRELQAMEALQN
# B1: chr4:148554787:148554788:-_ENSMUSG00000063077_ENSMUST00000060537|mus_mus|motif|central (ssRNA)
# RNA: GGGAGUUCUACAGUCCGACGAUCCUACAAGUCUUAGCACAAGAAUAAGAAGAGUCAGAGCCAUGGAGAGGGAACAGAGAGCGGGAGAAGUGCAGGGUGAGGAGGGAAAAGUCGUUAAGCCACAGGAUUACAUACAAGAAUAACCAACAGAGGAUUGAGCAUCA
# B2: chr17:73774127:73774128:-_ENSG00000132475_ENST00000254810|hu_hu|motif|central (ssRNA)
# RNA: GGGAGUUCUACAGUCCGACGAUCAUGACAAGACUCCCCACCACUUGUGAAUGUAAAACAUUUAAUUUAAAAAUGUUGAUACGGCAAUAUAUAAAAUAGCUAUUAUAAAUGCACAUAGUGUAUUCUAUAGCUGCCAGGUUUACUCAACAGAGGAUUGAGCAUCA
# B3: chr10:73576327:73576328:-_ENSG00000197746_ENST00000394936|hu_hu|FALSE|FALSE (ssRNA)
# RNA: GGGAGUUCUACAGUCCGACGAUCGCCAGAGGCCUAGGAGCUCGCCAUCCAUAUUUAUUUGAAAAGGUCAAAAGGAGCAUCUAUGAGACAAGGGAGGGGUGCAGGCUGAAGCAGCGCCUCAACAGCCAGGGACAUGUAGGCAACCAACAGAGGAUUGAGCAUCA
# B4: chr12:70905630:70905631:-_ENSMUSG00000034761_ENSMUST00000110570|mus_mus|FALSE|FALSE (ssRNA)
# RNA: GGGAGUUCUACAGUCCGACGAUCUAAGGCAACCCUGUAUGAAACUGUCGUAAAAUAUUCUGUUAAGGGAAGCUGUAUGUGCUAGACCUCCAACACGCCGCCAGGAACCCCCAAAGCACUACUCUGAGAAGGUAAACAACAUUUCAACAGAGGAUUGAGCAUCA
# B5: 41682097_41683073_2210_CDS_ENSG00000064042_ENST00000396595|human|control|control (ssRNA)
# RNA: GGGAGUUCUACAGUCCGACGAUCUGUCCCACUGCCUUCAGUCAUGGAGGAAGAGGUAGACAGCUGGUCAGCGGAACUUGAAGAAACAGUAAAUGGAACCACAGUGUCUUCAAUUAUCUUACGCUCCUCCUCAUAGUAUCUGCGCAACAGAGGAUUGAGCAUCA
# B6: chr16:55990476:55990477:+_ENSMUSG00000022601_ENSMUST00000050248|mus_mus|motif|central (ssRNA)
# RNA: GGGAGUUCUACAGUCCGACGAUCUAGUUUAUGUACACUUUCACAAAUUUCUAAAACUUCUGACAUAAAAAGGUGGCGAGCGGAGACGGCUACAUCAGCCAUGCUACAAAAGUCAAAACUUAGUACAGAAGUAUAGGCAAAUUCCAACAGAGGAUUGAGCAUCA
# B7: 75685096_75687080_2459_CDS_ENSG00000169375_ENST00000360439|human|control|control (ssRNA)
# RNA: GGGAGUUCUACAGUCCGACGAUCAAGUGAGAGGUGUGGGCCAACAGGUACACCAGCAUUCUCCUCCGUAGCCUGCUCUUGCCUCUCAUCAUAGAUACUCUCAAUCUCAUUGAGUAAGCUCUUAGACCUCAGGACCUUGGUGUCCAACAGAGGAUUGAGCAUCA
# B8: 69811592_69815821_3580_CDS_ENSMUSG00000044308_ENSMUST00000055758|mouse|control|control (ssRNA)
# RNA: GGGAGUUCUACAGUCCGACGAUCAAACUCUGCGAGCAAUUUCUGCUGCCUUUCUCUAGCCUUUUGUCGCCUUUCCUCCUUGUCCAGAGUUUUCUUCUCCGCUGCGGUGAUUUUUUUGGGUGGCACAGGAGGGGUCACUUUUCUCAACAGAGGAUUGAGCAUCA
# B9: 234758460_234762508_291_CDS_ENSG00000123485_ENST00000411486|human|control|control (ssRNA)
# RNA: GGGAGUUCUACAGUCCGACGAUCUUGCACGGAGCCAUCUGUCCUGUCCGCGGGCUUCAUGGAGGAGUCCUGGAUCUCUCCUUCGUUUCUUUCCUUUAUUAGUCUUCCACCCCAAAUUCUCAAUCCCUGUGGCGUCUCGUAGGUCAACAGAGGAUUGAGCAUCA
# B10: chr8:30643436:30643437:-_ENSG00000104695_ENST00000221138|hu_mus|motif|central (ssRNA)
# RNA: GGGAGUUCUACAGUCCGACGAUCGAAUUCUUAAAAAAUAAAACUCCAACUCUAUAAUCCAUGCCAGUUAAACUUGUUAACGGAAUUUCCAAGUAAGCGCAAAGGAGACGAAGCAGUCAGUGACCCUUUUUGCUUAACCAGUCACAACAGAGGAUUGAGCAUCA
# B11: chr7:65705844:65705845:+_ENSG00000169902_ENST00000304842|hu_mus|hu_hu_hu_mus_False|18_68 (ssRNA)
# RNA: GGGAGUUCUACAGUCCGACGAUCAAACGGAUCUUUGUUACAUAAAUAAGGUGCCGGCUCCCCAUGUUUAACGAUAACCUCCAGAAGGAAGGCUUGCAUGGCAGAAUCUAGCACUUCAUCAGUAACACCCGCCUCAUCCAAGCGCAACAGAGGAUUGAGCAUCA
# B12: chr19:36179134:36179135:+_ENSMUSG00000024800_ENSMUST00000025714|mus_mus|FALSE|FALSE (ssRNA)
# RNA: GGGAGUUCUACAGUCCGACGAUCUACUGUUAUUCAUUAUUCACAUGAAGGAUAAAAUAGUUUUUCUCUUAAAGUAUAUCUAAAUUAAUUAAGCUGUUAGUCUUUAAAAAAUGCUUCACUGGGUUUUAUUUGCUGUUUUAAUGGCAACAGAGGAUUGAGCAUCA
# B13: chr5:135496556:135496557:+_ENSG00000113658_ENST00000545279|hu_hu|FALSE|FALSE (ssRNA)
# RNA: GGGAGUUCUACAGUCCGACGAUCGUUCCUAAACUGAACCAGAAGGCUGUGUUGUGGAUUGAAUUCAUUAUGACGAGGCACUAAUACUGGAGGUAAGACUGGACUCUCCACUCUCUUAUAGUGGUAUGGGUUGAUACAAACUUCCAACAGAGGAUUGAGCAUCA
# B14: chr17:56552419:56552420:-_ENSMUSG00000013236_ENSMUST00000086828|mus_mus|mus_mus_mus_hu_False|1_108 (ssRNA)
# RNA: GGGAGUUCUACAGUCCGACGAUCAAAGUUUUUUUCUUUUAAAAAAAAUGAAAUGUCACGGGAUACAGUUACACUGAGAGUUUUAAAAGAAAGCUGGAUUCUGGUCCCAGCCCAGUGUCCCCAGGCUGCAGAGCGGGGCAGAGGCAACAGAGGAUUGAGCAUCA
# B15: 9435824_9435944_704_3pUTR_ENSG00000205339_ENST00000379719|human|control|control (ssRNA)
# RNA: GGGAGUUCUACAGUCCGACGAUCAGAAGAUCUUGAAUAUCUGUUUCUGGAUGAGGACAGACUGAUCAGACUGGUCAGAAAGAAGCUGGAUAAAACGAUCCUUUAGAACUGGCAGAAAAUGCUGCAUUGCUGCUACCAAUGGACCAACAGAGGAUUGAGCAUCA
# B16: 26112668_26113596_934_CDS_ENSMUSG00000045039_ENSMUST00000128119|mouse|control|control (ssRNA)
# RNA: GGGAGUUCUACAGUCCGACGAUCACUGUGCCACCAACCAGCCCCCUGGUUCUCCCACAAGUGCAGGUCACAGGCUCGUCCCAAGAAUCCAGGUUCACAGCGGCAUGGUCCCAGGGUCGAGGCGCAGGUGCCAUGGCUGCCACACAACAGAGGAUUGAGCAUCA
# B17: chr9:120860063:120860064:+_ENSMUSG00000006932_ENSMUST00000007130|mus_mus|motif|central (ssRNA)
# RNA: GGGAGUUCUACAGUCCGACGAUCCUGCAUGCCCUCAUCUAGCGUCUCAGGGAACAUGGCAGCUCGGACCCUCUGAGCCCGGGUCAUUGCAUACUGCCCGUCAAUAUCAGCUACUUGCUCUUGCGUGAAGGACUGGGAAAAGCCCAACAGAGGAUUGAGCAUCA
# B18: chr6:51416610:51416611:-_ENSMUSG00000004980_ENSMUST00000090002|perfect_dup|FALSE|FALSE (ssRNA)
# RNA: GGGAGUUCUACAGUCCGACGAUCCCUAUCAGUAAUUAUCUCAAUGGUAUCAAUUUUUCCAUAUUCCUCAAAGUAAUCUCUAAGGUGAUGUUCCUCAGUAUCUUCUUUAAUUCCGCCAACAAACAGCUUCUUCACAGUUACAUGCAACAGAGGAUUGAGCAUCA
# B19: chr8:108204030:108204031:+_ENSMUSG00000005698_ENSMUST00000005841|mus_hu|FALSE|FALSE (ssRNA)
# RNA: GGGAGUUCUACAGUCCGACGAUCCUUCUUGGCGGGUGGUGGGGCUGGGGUCACAGGCUGAGGCUCUGGCUCAGGUUCAAUUUCUACGGCAGGCUCCUCCUCAUCCUCAUUGUCGUCCAGAUCUGGUUCAGCAUUUUCACUGUCCAACAGAGGAUUGAGCAUCA
# B20: chr3:148802587:148802588:-_ENSG00000071794_ENST00000310053|hu_mus|hu_hu_hu_mus_False|18_48 (ssRNA)
# RNA: GGGAGUUCUACAGUCCGACGAUCUCCAACAACUUGUCCUCUCAUAGUUCCAAAUAAAACCAAAUCUUGCUCUUCAUCACUCGUUAGAAAGUCAUCUGGAGGAAUAAUGUCUUGGAAUUCAAAACGUGGCAAGAAAGUUGAGUACAACAGAGGAUUGAGCAUCA
# B21: chr2:155483634:155483635:-_ENSMUSG00000038324_ENSMUST00000041059|perfect_dup|FALSE|FALSE (ssRNA)
# RNA: GGGAGUUCUACAGUCCGACGAUCGGUGACAGCCAGAAUCCGGCAGAAAUUAGCGAGCUGCUGCUGAUCGAAAUUGGAUACUAAGGAACUCAGAUUGGGGACUUCAUCUAGUCGGAUCAUUUCCUUUUUAACACCCAAAAUAUCCAACAGAGGAUUGAGCAUCA
# B22: chr12:32871593:32871594:+_ENSG00000087470_ENST00000452533|hu_hu|FALSE|FALSE (ssRNA)
# RNA: GGGAGUUCUACAGUCCGACGAUCCAAUACAUCCAUGGCAUCAGUACCCGCAUCCAUGAGAUCAAGUUUAGUGAUUACAGCUAGGGUUCUGCGACCAUCUGGAUCUACCUCUCUUGAAAUUUUAAGUGCCUCUGAUGUUGCCAUCAACAGAGGAUUGAGCAUCA
# Target: T1, UNK ZnF1-3
# Assay: nsRBNS (natural sequence RNA bind-n-seq); RBNS binding buffer (assumed for nsRBNS): 25 mM Tris pH 7.5, 150 mM KCl, 3 mM MgCl2, 0.01% Triton X-100, 500 ug/ml BSA, 20 U/ml SUPERase-In, 4 C; UNK is unkempt and MSI1 is Musashi-1; names of the RNAs are library labels; protein concentration not given here; high values mean tight binding
row,Binder,binding signal [enrichment R]
1,B1,2.41
2,B2,1.36
3,B3,2.54
4,B4,1.29
5,B5,0.918
6,B6,1.21
7,B7,0.663
8,B8,0.436
9,B9,0.585
10,B10,1.07
11,B11,0.267
12,B12,2.58
13,B13,1.44
14,B14,1.2
15,B15,1.9
16,B16,1.45
17,B17,1.26
18,B18,1.05
19,B19,0.649
20,B20,1.23
21,B21,0.94
22,B22,1.3
